# Results reported in the supplement of paper PMC8728848.
# The list shows a part of the results.
# B1: Gal 4 (Mus musculus), P56470 (protein)
# chain: MAYVPAPGYQPTYNPTLPYYQPIPGGLNVGMSVYIQGVASEHMKRFFVNFVVGQDPGSDVAFHFNPRFDGWDKVVFNTLQGGKWGSEERKRSMPFKKGAAFELVFIVLAEHYKVVVNGNPFYEYGHRLPLQMVTHLQVDGDLQLQSINFIGGQPLRPQGPPMMPPYPGPGHCHQQLNSLPTMEGPPTFNPPVPYFGRLQGGLTARRTIIIKGYVPPTGKSFAINFKVGSSGDIALHINPRMGNGTVVRNSLLNGSWGSEEKKITHNPFGPGQFFDLSIRCGLDRFKVYANGQHLFDFAHRLSAFQRVDTLEIQGDVTLSYVQI
# Assays:
# Assay in all cases: glycan array binding signal (z-score within array); higher = stronger binding
# Conditions in all cases: glycan notation: IUPAC condensed, linker removed
# [1] = biological target: GlcNAc(b1-2)[GlcNAc(b1-6)]Man(a1-6)[GlcNAc(b1-2)Man(a1-3)]Man(b1-4)GlcNAc(b1-4)[Fuc(a1-6)]GlcNAc
# Summary of the method: (§1)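 The binding signal is a Z-score computed within each array and averaged over linkers. Arrays of the same protein sequence at different concentrations or buffers were also averaged together. Data originate from 3228 arrays in the Consortium for Functional Glycomics database, kept only where the protein sequence was available.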
# [2] = biological target: GlcNAc(b1-2)[GlcNAc(b1-6)]Man(a1-6)[GlcNAc(b1-2)Man(a1-3)][GlcNAc(b1-4)]Man(b1-4)GlcNAc(b1-4)GlcNAc
# Summary of the method: as §1
# [3] = biological target: GlcNAc(b1-2)[GlcNAc(b1-6)]Man(a1-6)[GlcNAc(b1-4)][GlcNAc(b1-2)Man(a1-3)]Man(b1-4)GlcNAc(b1-4)GlcNAc
# Summary of the method: as §1
# [4] = biological target: GlcNAc(b1-3)Fuc
# Summary of the method: as §1
# [5] = biological target: GlcNAc(b1-3)Gal
# Summary of the method: as §1
# [6] = biological target: GlcNAc(b1-3)Gal(b1-3)GalNAc
# Summary of the method: as §1
# [7] = biological target: GlcNAc(b1-3)Gal(b1-4)Glc
# Summary of the method: as §1
# [8] = biological target: GlcNAc(b1-3)Gal(b1-4)GlcNAc
# Summary of the method: as §1
# [9] = biological target: GlcNAc(b1-3)Gal(b1-4)GlcNAc(b1-2)Man(a1-3)[GlcNAc(b1-3)Gal(b1-4)GlcNAc(b1-2)Man(a1-6)]Man(b1-4)GlcNAc(b1-4)GlcNAc
# Summary of the method: as §1
# [10] = biological target: GlcNAc(b1-3)Gal(b1-4)GlcNAc(b1-2)Man(a1-3)[GlcNAc(b1-3)Gal(b1-4)GlcNAc(b1-2)Man(a1-6)]Man(b1-4)GlcNAc(b1-4)[Fuc(a1-6)]GlcNAc
# Summary of the method: as §1
# [11] = biological target: GlcNAc(b1-3)Gal(b1-4)GlcNAc(b1-2)[GlcNAc(b1-3)Gal(b1-4)GlcNAc(b1-6)]Man(a1-6)[GlcNAc(b1-3)Gal(b1-4)GlcNAc(b1-2)Man(a1-3)]Man(b1-4)GlcNAc(b1-4)GlcNAc
# Summary of the method: as §1
# [12] = biological target: GlcNAc(b1-3)Gal(b1-4)GlcNAc(b1-3)Gal(b1-4)GlcNAc
# Summary of the method: as §1
# [13] = biological target: GlcNAc(b1-3)Gal(b1-4)GlcNAc(b1-3)Gal(b1-4)GlcNAc(b1-2)Man(a1-3)[GlcNAc(b1-3)Gal(b1-4)GlcNAc(b1-3)Gal(b1-4)GlcNAc(b1-2)Man(a1-6)]Man(b1-4)GlcNAc(b1-4)GlcNAc
# Summary of the method: as §1
# [14] = biological target: GlcNAc(b1-3)Gal(b1-4)GlcNAc(b1-3)Gal(b1-4)GlcNAc(b1-2)Man(a1-3)[GlcNAc(b1-3)Gal(b1-4)GlcNAc(b1-3)Gal(b1-4)GlcNAc(b1-2)Man(a1-6)]Man(b1-4)GlcNAc(b1-4)[Fuc(a1-6)]GlcNAc
# Summary of the method: as §1
# [15] = biological target: GlcNAc(b1-3)Gal(b1-4)GlcNAc(b1-3)Gal(b1-4)GlcNAc(b1-2)[GlcNAc(b1-3)Gal(b1-4)GlcNAc(b1-3)Gal(b1-4)GlcNAc(b1-6)]Man(a1-6)[GlcNAc(b1-3)Gal(b1-4)GlcNAc(b1-3)Gal(b1-4)GlcNAc(b1-2)Man(a1-3)]Man(b1-4)GlcNAc(b1-4)[Fuc(a1-6)]GlcNAc
# Summary of the method: as §1
# [16] = biological target: GlcNAc(b1-3)Gal(b1-4)GlcNAc(b1-3)Gal(b1-4)GlcNAc(b1-3)Gal(b1-4)GlcNAc(b1-2)Man(a1-3)[GlcNAc(b1-3)Gal(b1-4)GlcNAc(b1-3)Gal(b1-4)GlcNAc(b1-3)Gal(b1-4)GlcNAc(b1-2)Man(a1-6)]Man(b1-4)GlcNAc(b1-4)GlcNAc
# Summary of the method: as §1
# [17] = biological target: GlcNAc(b1-3)Gal(b1-4)GlcNAc(b1-3)Gal(b1-4)GlcNAc(b1-3)Gal(b1-4)GlcNAc(b1-2)Man(a1-3)[GlcNAc(b1-3)Gal(b1-4)GlcNAc(b1-3)Gal(b1-4)GlcNAc(b1-3)Gal(b1-4)GlcNAc(b1-2)Man(a1-6)]Man(b1-4)GlcNAc(b1-4)[Fuc(a1-6)]GlcNAc
# Summary of the method: as §1
# [18] = biological target: GlcNAc(b1-3)Gal(b1-4)GlcNAc(b1-3)Gal(b1-4)GlcNAc(b1-3)Gal(b1-4)GlcNAc(b1-2)[GlcNAc(b1-3)Gal(b1-4)GlcNAc(b1-3)Gal(b1-4)GlcNAc(b1-3)Gal(b1-4)GlcNAc(b1-6)]Man(a1-6)[GlcNAc(b1-3)Gal(b1-4)GlcNAc(b1-3)Gal(b1-4)GlcNAc(b1-3)Gal(b1-4)GlcNAc(b1-2)Man(a1-3)]Man(b1-4)GlcNAc(b1-4)[Fuc(a1-6)]GlcNAc
# Summary of the method: as §1
# [19] = biological target: GlcNAc(b1-3)Gal(b1-4)GlcNAc(b1-3)Gal(b1-4)GlcNAc(b1-3)Gal(b1-4)GlcNAc(b1-3)Gal(b1-4)GlcNAc(b1-2)Man(a1-3)[GlcNAc(b1-3)Gal(b1-4)GlcNAc(b1-3)Gal(b1-4)GlcNAc(b1-3)Gal(b1-4)GlcNAc(b1-3)Gal(b1-4)GlcNAc(b1-2)Man(a1-6)]Man(b1-4)GlcNAc(b1-4)GlcNAc
# Summary of the method: as §1
# [20] = biological target: GlcNAc(b1-3)Gal(b1-4)GlcNAc(b1-3)Gal(b1-4)GlcNAc(b1-3)Gal(b1-4)GlcNAc(b1-3)Gal(b1-4)GlcNAc(b1-2)Man(a1-3)[GlcNAc(b1-3)Gal(b1-4)GlcNAc(b1-3)Gal(b1-4)GlcNAc(b1-3)Gal(b1-4)GlcNAc(b1-3)Gal(b1-4)GlcNAc(b1-2)Man(a1-6)]Man(b1-4)GlcNAc(b1-4)[Fuc(a1-6)]GlcNAc
# Summary of the method: as §1
# [21] = biological target: GlcNAc(b1-3)Gal(b1-4)GlcNAc(b1-3)Gal(b1-4)GlcNAc(b1-3)Gal(b1-4)GlcNAc(b1-3)Gal(b1-4)GlcNAc(b1-2)[GlcNAc(b1-3)Gal(b1-4)GlcNAc(b1-3)Gal(b1-4)GlcNAc(b1-3)Gal(b1-4)GlcNAc(b1-3)Gal(b1-4)GlcNAc(b1-6)]Man(a1-6)[GlcNAc(b1-3)Gal(b1-4)GlcNAc(b1-3)Gal(b1-4)GlcNAc(b1-3)Gal(b1-4)GlcNAc(b1-3)Gal(b1-4)GlcNAc(b1-2)Man(a1-3)]Man(b1-4)GlcNAc(b1-4)[Fuc(a1-6)]GlcNAc
# Summary of the method: as §1
# [22] = biological target: GlcNAc(b1-3)Gal(b1-4)GlcNAc(b1-3)Gal(b1-4)GlcNAc(b1-3)GalNAc
# Summary of the method: as §1
# [23] = biological target: GlcNAc(b1-3)Gal(b1-4)GlcNAc(b1-3)GalNAc
# Summary of the method: as §1
# [24] = biological target: GlcNAc(b1-3)Gal(b1-4)GlcNAc(b1-3)[GlcNAc(b1-3)Gal(b1-4)GlcNAc(b1-3)]GalNAc
# Summary of the method: as §1
# [25] = biological target: GlcNAc(b1-3)Gal(b1-4)GlcNAc(b1-6)[Gal(b1-3)]GalNAc
# Summary of the method: as §1
# [26] = biological target: GlcNAc(b1-3)Gal(b1-4)GlcNAc(b1-6)[GlcNAc(b1-3)Gal(b1-3)]GalNAc
# Summary of the method: as §1
# [27] = biological target: GlcNAc(b1-3)Gal(b1-4)GlcNAc(b1-6)[GlcNAc(b1-3)]Gal(b1-4)GlcNAc
# Summary of the method: as §1
# [28] = biological target: GlcNAc(b1-3)GalNAc
# Summary of the method: as §1
# [29] = biological target: GlcNAc(b1-3)Man
# Summary of the method: as §1
# [30] = biological target: GlcNAc(b1-3)[GlcNAc(b1-4)][GlcNAc(b1-6)]GlcNAc
# Summary of the method: as §1
# [31] = biological target: GlcNAc(b1-3)[GlcNAc(b1-6)]Gal(b1-4)GlcNAc
# Summary of the method: as §1
# [32] = biological target: GlcNAc(b1-3)[GlcNAc(b1-6)]GalNAc
# Summary of the method: as §1
# [33] = biological target: GlcNAc(b1-4)Gal(b1-4)GlcNAc
# Summary of the method: as §1
# [34] = biological target: GlcNAc(b1-4)GlcNAc
# Summary of the method: as §1
# [35] = biological target: GlcNAc(b1-4)GlcNAc(b1-4)GlcNAc
# Summary of the method: as §1
# [36] = biological target: GlcNAc(b1-4)GlcNAc(b1-4)GlcNAc(b1-4)GlcNAc(b1-4)GlcNAc
# Summary of the method: as §1
# [37] = biological target: GlcNAc(b1-4)GlcNAc(b1-4)GlcNAc(b1-4)GlcNAc(b1-4)GlcNAc(b1-4)GlcNAc
# Summary of the method: as §1
# [38] = biological target: GlcNAc(b1-4)[GlcNAc(b1-6)]GalNAc
# Summary of the method: as §1
binder,measurement,setting,value
B1,glycan array binding signal (z-score),[1],-0.25
same,glycan array binding signal (z-score),[2],-0.203
same,glycan array binding signal (z-score),[3],-0.265
same,glycan array binding signal (z-score),[4],-0.261
same,glycan array binding signal (z-score),[5],-0.236
same,glycan array binding signal (z-score),[6],-0.227
same,glycan array binding signal (z-score),[7],0.019
same,glycan array binding signal (z-score),[8],-0.204
same,glycan array binding signal (z-score),[9],-0.254
same,glycan array binding signal (z-score),[10],-0.253
same,glycan array binding signal (z-score),[11],-0.169
same,glycan array binding signal (z-score),[12],-0.174
same,glycan array binding signal (z-score),[13],-0.18
same,glycan array binding signal (z-score),[14],-0.19
same,glycan array binding signal (z-score),[15],-0.279
same,glycan array binding signal (z-score),[16],-0.25
same,glycan array binding signal (z-score),[17],-0.173
same,glycan array binding signal (z-score),[18],-0.244
same,glycan array binding signal (z-score),[19],-0.27
same,glycan array binding signal (z-score),[20],-0.287
same,glycan array binding signal (z-score),[21],-0.245
same,glycan array binding signal (z-score),[22],-0.3
same,glycan array binding signal (z-score),[23],-0.205
same,glycan array binding signal (z-score),[24],-0.255
same,glycan array binding signal (z-score),[25],-0.174
same,glycan array binding signal (z-score),[26],-0.018
same,glycan array binding signal (z-score),[27],-0.278
same,glycan array binding signal (z-score),[28],-0.231
same,glycan array binding signal (z-score),[29],-0.218
same,glycan array binding signal (z-score),[30],-0.236
same,glycan array binding signal (z-score),[31],-0.239
same,glycan array binding signal (z-score),[32],-0.232
same,glycan array binding signal (z-score),[33],-0.235
same,glycan array binding signal (z-score),[34],-0.227
same,glycan array binding signal (z-score),[35],-0.23
same,glycan array binding signal (z-score),[36],-0.225
same,glycan array binding signal (z-score),[37],-0.225
same,glycan array binding signal (z-score),[38],-0.219
